Experimental data taken from PubChem BioAssay (NCATS).
Where “and” joins values, the source holds several entries; their conditions need not be identical. Equal values may be shown once. This list was built around the results that the source calls inconclusive (neither active nor inactive); the mix of calls is not that of the screen. Potencies beside an inconclusive call are fits to weak or partial responses and may not hold up. Calls of active or inactive are those of the source. Calls follow the shape of the dose curve; as a rule, active = well fitted curve in the direction sought with a large enough effect; inconclusive = small, poorly fitted or top-dose-only effect, or another doubt; inactive = no such curve, though single readings can be large; an effect the other way counts as inactive or inconclusive.

Key:
[1] = target: Glutathione peroxidase 1 (Homo sapiens) (UniProt P07203); assay: Primary qHTS Assay for Inhibitors of Recombinant Selenoprotein Glutathione Peroxidase 1 (GPX1) (AID 1845191); settings: activity, negative = inhibition: at 48.8 µM (top of the series); also: nearly all actives have a fitted effect of over 65% in size; as to activity, negative = inhibition: % is scaled to controls: 0 for no effect and ±100 for the full control effect
Sequence of UniProt P07203 (P07203 whole entry, looked up): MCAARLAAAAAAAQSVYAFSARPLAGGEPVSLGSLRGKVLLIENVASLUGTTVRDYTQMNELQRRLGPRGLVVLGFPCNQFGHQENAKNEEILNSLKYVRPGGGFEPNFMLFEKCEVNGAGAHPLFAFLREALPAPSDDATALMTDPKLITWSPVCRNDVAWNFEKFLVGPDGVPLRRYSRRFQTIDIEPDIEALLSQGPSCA
In short: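 Recombinant GPX1 (10 nM final) was preincubated with compound for 30 min at room temperature, then reacted with 1 mM GSH, 0.5 mM CHP, 0.5 mM NADPH and 100 nM glutathione reductase; NADPH fluorescence (340/450 nm) was read at 0 and 15 min.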

[2] = Primary redox qHTS assay for identification of artifact compounds. (AID 1845223)
In short: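 Amplex Red (25 uM) and HRP (250 mU/mL) in HBSS, with compounds for 15 min, then 250 uM DTT for 30 min, room temperature, dark. Fluorescence 525/598 nm read; normalized to DMSO and 10 uM DA3003; Hill fit.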

[3] = Quantitative High-Throughput drug screen in 47 multiple myeloma cell lines against the NCATS MIPE library collection: Delta47_JCRB cell viability assay (AID 1918925; also: nearly all actives have a fitted effect of over 45% in size); settings: Delta47 myeloma viability, CellTiter-Glo ATP, 48 h; viability (% of DMSO): at 45.8 µM (top of the series) unless noted
In short: (§1)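 Viability readout: CellTiter-Glo luminescence following 5 min room-temperature incubation with reagent. Prior exposure: 48 h, 37C, humidified 5% CO2, 500 cells per well.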

[4] = Quantitative High-Throughput drug screen in 47 multiple myeloma cell lines against the NCATS MIPE library collection: AMO1_DSMZ cell viability assay (AID 1918927; also: nearly all actives have a fitted effect of over 30% in size;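 as to viability, % of DMSO: 100% = DMSO only wells and 0% = cell-free media only wells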)
In short: as §1

[5] = Quantitative High-Throughput drug screen in 47 multiple myeloma cell lines against the NCATS MIPE library collection: ARP1_JJKsccF8 cell viability assay (AID 1918928; also: nearly all actives have a fitted effect of over 40% in size); settings: ARP1 myeloma cells viability, CellTiter-Glo ATP, 48 h; viability: at 45.8 µM (top of the series)
In short: (§2)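 Myeloma cells, 500 per well, were exposed to MIPE 4.0 drugs by pin transfer for 48 h at 37 °C, 5% CO2. Viability was read as ATP luminescence with CellTiter-Glo, normalised to DMSO-only (100%) and medium-only (0%) wells.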

[6] = Quantitative High-Throughput drug screen in 47 multiple myeloma cell lines against the NCATS MIPE library collection: ARD_JJKsccE7 cell viability assay (AID 1918929;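 as to viability: 100% = DMSO-only wells and 0% = media-only wells without cells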)
In short: as §1

[7] = Quantitative High-Throughput drug screen in 47 multiple myeloma cell lines against the NCATS MIPE library collection: Karpas417_ECACC cell viability assay (AID 1918961); settings: Karpas417 myeloma viability, CellTiter-Glo ATP luminescence, 48 h; viability (% of DMSO): at 45.8 µM (top of the series) unless noted
In short: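 Approved and investigational drugs from MIPE 4.0 were added by pin tool to 500 cells per well. After 48 hours at 37C, ATP-based CellTiter-Glo luminescence indicated remaining viability.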

[8] = Quantitative High-Throughput drug screen in 47 multiple myeloma cell lines against the NCATS MIPE library collection: FR4_PLB cell viability assay (AID 1918924; also: nearly all actives have a fitted effect of over 35% in size;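 as to viability (% of DMSO control): 100% = DMSO-treated cells and 0% = wells with media only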); settings: FR4_PLB myeloma cells viability, CellTiter-Glo ATP, 48 h; viability (% of DMSO control): at 45.8 µM (top of the series)
In short: as §1

[9] = Quantitative High-Throughput drug screen in 47 multiple myeloma cell lines against the NCATS MIPE library collection: EJM_DSMZ cell viability assay (AID 1918926; also: nearly all actives have a fitted effect of over 30% in size;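 as to viability, % of control: 100% = DMSO-only wells and 0% = media-only wells without cells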); settings: EJM myeloma cell viability, CellTiter-Glo ATP, 48 h; viability, % of control: at 45.8 µM (top of the series)
In short: as §1

[10] = Quantitative High-Throughput drug screen in 47 multiple myeloma cell lines against the NCATS MIPE library collection: Karpas620_DSMZ cell viability assay (AID 1918959); also: nearly all actives have a fitted effect of over 30% in size;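 as to viability (% of DMSO): 100% = DMSO-only wells and 0% = cell-free media-only wells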
In short: as §1

[11] = Quantitative High-Throughput drug screen in 47 multiple myeloma cell lines against the NCATS MIPE library collection: KMM1_JCRB cell viability assay (AID 1918960); settings: KMM1 myeloma viability, CellTiter-Glo ATP luminescence, 48 h; viability (% of DMSO): at 45.8 µM (top of the series); also: nearly all actives have a fitted effect of over 30% in size
In short: as §2

[12] = Quantitative High-Throughput drug screen in 47 multiple myeloma cell lines against the NCATS MIPE library collection: KHM11_PLB cell viability assay (AID 1918962); settings: KHM11 myeloma cell viability, CellTiter-Glo ATP luminescence, 48 h; viability, % of DMSO control: at 45.8 µM (top of the series); also: nearly all actives have a fitted effect of over 35% in size;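 as to viability, % of DMSO control: 0% = media only wells and 100% = DMSO treated cells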
In short: as §1

[13] = target: Phospholipid hydroperoxide glutathione peroxidase GPX4 (Homo sapiens) (UniProt P36969); assay: Primary qHTS Assay for Inhibitors of Recombinant Selenoprotein Glutathione Peroxidase 4 (GPX4) (AID 1845192); also: nearly all actives have a fitted effect of over 65% in size
Sequence of UniProt P36969 (P36969 whole entry, looked up): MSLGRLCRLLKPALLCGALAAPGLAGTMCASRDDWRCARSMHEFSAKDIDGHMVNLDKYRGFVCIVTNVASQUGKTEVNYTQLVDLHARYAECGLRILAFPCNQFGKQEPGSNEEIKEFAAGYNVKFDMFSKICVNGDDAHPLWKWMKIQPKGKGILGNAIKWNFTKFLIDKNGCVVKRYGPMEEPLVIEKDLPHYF
In short: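 GR-coupled readout: 100 nM GR, 1 mM GSH, 0.5 mM NADPH; NADPH fluorescence (ex 340/em 450 nm) read at t=0 and after 15 min RT. GPX4 200 nM, preincubated 30 min with compound; substrate 0.5 mM CHP.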

[14] = Primary fluorescence-based thiol-reactive (MSTI) qHTS assay for identification of artifact compounds. (AID 1845221);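 also: thiol-reactive compounds lower the probe fluorescence signal; nearly all actives have a fitted effect of over 65% in size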
In short: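 Reactivity toward the thiol probe MSTI (4 uM) is scored by fluorescence at Ex/Em 525/598 nm after 1 h at room temperature. Acetyl-MSTI and MSTI define the activity scale.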
Potency is read from the fitted curve at half-maximal effect; tags tell the direction and shape of the fitted curve.

Cc1ccn(-c2ccc(-c3ncco3)cc2)c(=O)c1-c1ccc2nc(N)ncc2c1
Potency [1]: inconclusive: 16.3 µM [inhibitor, partial curve] | Potency [2]: inconclusive: 29.9 µM [activator, single point] | Potency [3]: inconclusive: 11.8 µM [cytotoxic, partial curve, poor fit] | Potency [4]: active: 14.8 µM | Potency [5]: inactive | Potency [6]: inconclusive: 8.33 µM [cytotoxic, partial curve] | Potency [7]: active: 5.26 µM

CS(=O)(=O)OCCCCOS(C)(=O)=O
Potency [1]: inconclusive: 29 µM [inhibitor, single point] | Potency [8]: active: 4.18 µM | Potency [9]: inconclusive: 37.2 µM [cytotoxic, single point] | Potency [5]: inconclusive: 0.0166 µM [rising, full curve, poor fit] | Potency [6]: inactive | Potency [10]: inactive | Potency [11]: inactive | Potency [7]: inconclusive: 0.935 µM [cytotoxic, full curve, poor fit] | Potency [12]: inconclusive: 1.48 µM [rising, partial curve, poor fit]

CCOc1ccc(Nc2nc(-c3c(C)nc4ccccn34)cs2)cc1
Potency [1]: inconclusive: 18 µM [inhibitor, single point] | Potency [13]: inconclusive: 25.5 µM [inhibitor, single point] | Potency [14]: active: 2.67 µM | Potency [2]: inactive | Potency [8]: inconclusive: 0.001 µM [cytotoxic] | Potency [3]: inconclusive: 0.0148 µM [cytotoxic, full curve] | Potency [9]: inconclusive: 0.0166 µM [cytotoxic, full curve] | Potency [10]: active: 0.0015 µM

CCOC(=O)C1=C[C@]2(CC)CCCN3CCc4c(n1c1ccccc41)[C@@H]32
Potency [1]: active: 12.8 µM and inconclusive: 35.5 µM [inhibitor, single point] | Potency [3]: active: 10.5 µM | Potency [9]: active: 20.9 µM | Potency [6]: inconclusive: 37.2 µM [cytotoxic, single point] | Potency [10]: active: 23.5 µM | Potency [12]: active: 9.35 µM

N#CC(c1ccnc(NCCc2cccnc2)n1)c1nc2ccccc2s1 (stereo not given)
Potency [1]: inactive | Potency [3]: active: 11.8 µM | Potency [9]: active: 18.7 µM | Potency [4]: active: 6.62 µM | Potency [6]: active: 6.62 µM | Potency [7]: inconclusive: 7.43 µM [cytotoxic, full curve, poor fit]

Cn1c(=O)c(Oc2ccc(F)cc2F)cc2cnc(NC3CCOCC3)nc21
Potency [1]: active: 16.3 µM | Potency [13]: inconclusive: 4.53 µM [inhibitor, partial curve, poor fit] | Potency [8]: inactive | Potency [3]: inconclusive: 9.35 µM [cytotoxic, partial curve, poor fit] | Potency [4]: inconclusive: 3.72 µM [cytotoxic, partial curve, poor fit] | Potency [11]: inconclusive: 13.2 µM [cytotoxic, single point] | Potency [7]: inconclusive: 37.2 µM [rising, single point] | Potency [12]: inconclusive: 4.18 µM [cytotoxic, full curve, poor fit]

Cc1cc(-c2ccc(CC(=O)Nc3ccc(-c4cccnc4)cc3)cc2)ccn1
Potency [1]: inactive | viability (% of DMSO control) [8]: inconclusive: 75.2% [cytotoxic] | Potency [3]: inconclusive: 26.4 µM [cytotoxic, single point] | Potency [9]: inconclusive: 16.6 µM [cytotoxic, partial curve, poor fit] | Potency [5]: inconclusive: 18.7 µM [cytotoxic, partial curve, poor fit] | Potency [6]: active: 16.6 µM | Potency [10]: inconclusive: 18.7 µM [cytotoxic, partial curve] | Potency [7]: active: 16.6 µM

COc1cc2nc(N3CCN(C(=O)c4ccco4)CC3)nc(N)c2cc1OC
Potency [1]: inconclusive: 11.1 µM [inhibitor, single point] and inconclusive: 17.8 µM [inhibitor, partial curve] | Potency [8]: inconclusive: 33.2 µM [cytotoxic, single point] | Potency [9]: inconclusive: 26.4 µM [cytotoxic, single point] | Potency [6]: active: 9.35 µM | Potency [10]: active: 5.26 µM | Potency [11]: active: 9.35 µM | Potency [7]: inconclusive: 9.35 µM [cytotoxic, partial curve, poor fit]

CO[C@H]1C=CO[C@@]2(C)Oc3c(C)c(O)c4c(O)c(c5c(c4c3C2=O)NC2(CCN(CC(C)C)CC2)N=5)=NC(=O)C(C)=CC=C[C@H](C)[C@H](O)[C@@H](C)[C@@H](O)[C@@H](C)[C@H](OC(C)=O)[C@H]1C
Potency [1]: inconclusive: 18 µM [inhibitor, single point] | Potency [14]: inconclusive: 0.336 µM [inhibitor, full curve, poor fit] | Potency [2]: inactive | Potency [8]: inconclusive: 20.9 µM [cytotoxic, single point] | Potency [9]: inconclusive: 16.6 µM [cytotoxic, partial curve, poor fit] | Potency [4]: inconclusive: 37.2 µM [cytotoxic, single point] | Potency [5]: inconclusive: 0.0296 µM [cytotoxic, full curve, poor fit] | Potency [6]: inconclusive: 9.35 µM [cytotoxic, partial curve, poor fit] | Potency [10]: inconclusive: 18.7 µM [cytotoxic, partial curve, poor fit] | Potency [11]: inactive | Potency [7]: inconclusive: 11.8 µM [cytotoxic, partial curve, poor fit] | Potency [12]: inconclusive: 0.0332 µM [rising, full curve]

CC(C)=CC[C@@H](O)C1=CC(=O)c2c(O)ccc(O)c2C1=O
Potency [1]: inconclusive: 29 µM [inhibitor, single point] | Potency [13]: active: 16.1 µM | Potency [4]: active: 4.18 µM | Potency [6]: inconclusive: 20.9 µM [cytotoxic, partial curve, poor fit] | Potency [11]: inconclusive: 18.7 µM [cytotoxic, partial curve] | Potency [7]: active: 1.18 µM | Potency [12]: inconclusive: 33.2 µM [cytotoxic, single point]

COc1cc(C(=O)NC2CCN(C)CC2)ccc1Nc1ncc2c(n1)N(C1CCCC1)CCC(=O)N2C(C)C
Potency [1]: inconclusive: 29 µM [inhibitor, single point] | Potency [8]: inconclusive: 26.4 µM [cytotoxic, single point] | Potency [4]: active: 9.35 µM | Potency [6]: active: 18.7 µM | Potency [7]: active: 13.2 µM | Potency [12]: active: 14.8 µM

O=C(O)c1c(Cl)c(Cl)c(Cl)c(Cl)c1-c1c2cc(I)c(=O)c(I)c-2oc2c(I)c(O)c(I)cc12
Potency [1]: inconclusive: 25.5 µM [inhibitor, single point] | Potency [8]: inconclusive: 9.35 µM [cytotoxic, partial curve] | Potency [9]: inconclusive: 7.43 µM [cytotoxic, full curve] | Potency [5]: inconclusive: 13.2 µM [cytotoxic, partial curve] | Potency [10]: active: 14.8 µM | Potency [11]: inconclusive: 16.6 µM [cytotoxic, partial curve] | Potency [12]: inconclusive: 4.69 µM [cytotoxic, full curve, poor fit]

CC(C)(C)OC(=O)N[C@H]1CCCCCC=C[C@@H]2C[C@@]2(C(=O)NS(=O)(=O)C2CC2)NC(=O)[C@@H]2C[C@@H](OC(=O)N3Cc4cccc(F)c4C3)CN2C1=O
Potency [1]: inconclusive: 20.5 µM [inhibitor, single point] | Potency [13]: inconclusive: 32.1 µM [inhibitor, single point] | Potency [2]: inconclusive: 4.74 µM [activator, single point] | Potency [5]: inactive | Potency [6]: inconclusive: 11.8 µM [cytotoxic, partial curve, poor fit] | Potency [10]: inconclusive: 23.5 µM [cytotoxic, single point] | Potency [11]: inconclusive: 14.8 µM [cytotoxic, partial curve, poor fit] | Potency [7]: inconclusive: 0.0019 µM [cytotoxic, full curve, poor fit] | Potency [12]: inactive

Cc1cn([C@H]2C=C[C@@H](CO)O2)c(=O)[nH]c1=O
Potency [1]: inactive | Potency [8]: inconclusive: 7.62 µM [rising, partial curve, poor fit] | viability (% of DMSO) [3]: inconclusive: 66.3% [cytotoxic] [at 92.2 µM] | Potency [9]: inactive | Potency [5]: inactive | Potency [7]: active: 0.0108 µM | Potency [12]: inconclusive: 0.27 µM [rising, full curve]

Cc1ccc(N(CC2=NCCN2)c2cccc(O)c2)cc1
Potency [1]: inconclusive: 7.18 µM [inhibitor, full curve] | Potency [3]: inactive | Potency [9]: inactive | Potency [4]: active: 23.5 µM | Potency [6]: inconclusive: 33.2 µM [cytotoxic, single point] | Potency [11]: inconclusive: 37.2 µM [cytotoxic, partial curve, poor fit] | Potency [7]: inconclusive: 0.264 µM [cytotoxic, full curve, poor fit] | Potency [12]: inactive

CCCNC(=O)Nc1ccc(Oc2ncnc3cc(OC)c(OC)cc23)cc1Cl
Potency [1]: inactive | Potency [8]: inconclusive: 23.5 µM [cytotoxic, partial curve] | Potency [3]: inactive | Potency [4]: inactive | Potency [5]: inactive | Potency [6]: inconclusive: 0.0083 µM [cytotoxic, full curve, poor fit] | Potency [10]: inactive | Potency [11]: inconclusive: 1.87 µM [cytotoxic, partial curve, poor fit] | Potency [7]: inconclusive: 37.2 µM [rising, partial curve, poor fit] | Potency [12]: inconclusive: 7.43 µM [cytotoxic, partial curve, poor fit]
